Measured values taken from ChEMBL document CHEMBL4888484, “Replenishing the malaria drug discovery pipeline: Screening and hit evaluation of the MMV Hit Generation Library 1 (HGL1) against asexual blood stage Plasmodium falciparum ,using a nano luciferase reporter read-out” (2022).
The whole screen tested about 150,000 compounds, of which about 540 (0.36%) showed an effect of 50% or more. The list shows a part of the results.

Each compound was assayed on Plasmodium falciparum (assay: Primary screen in NF54 nanoGlo assay, in single point, at 2uM, 72h; a lower Z score goes with more inhibition). Settings: timepoint 72 hour.
Assay type: functional, Erythrocyte

Structure (SMILES)	% Inhibition [%]	Z score
CCOc1ccccc1NC(=O)[C@H](C)S(C)(=O)=O	-9	1.8
Cc1cccc(OCc2nc(CN(CCN3CCOCC3)C(=O)C(C)C)cs2)c1	-11	1.45
CCNC(=O)N1CCC(n2cnc3cnccc3c2=O)CC1	-13	1.14
O=C(c1cccc(Oc2ccccc2)c1)N1CC[C@@]2(O)CCNC[C@H]2C1	-16	1.63
CCc1noc([C@H](C)NC(=O)c2cnc(OC)nc2)n1	9	-0.79
Cc1ccnc([C@H](C)NS(=O)(=O)c2occc2Br)n1	9	-1.64
O=C(c1cnnn1-c1ccccc1)N1CCC(O)(CO)CC1	-9	0.83
Cc1cnc(N2CCO[C@H](c3ccco3)C2)c(Br)c1	-9	1.22
CCO[C@H]1CCOC2(CCN(C(=O)COc3ccccc3)CC2)C1	-14	2.56
O=C(NCc1ccc(-n2cncn2)nc1)C1CC2CCC1C2 (stereo not given)	1	-0.18
CC(C)Oc1cccc(C(=O)[C@H]2CCCN(Cc3cccc4c3OCO4)C2)c1	8	-1.15
Cc1c(-c2cnn(C)c2)nc(N)c(C#N)c1-c1cc(CN(C)C)cs1	27	-2.53
COCCn1c(-c2ccccn2)nc2cc(NC(C)=O)cc(C(=O)N[C@H]3CCCc4ccccc43)c21	3	-0.36
CCC(=O)N[C@@H]1CC[C@@]2(OC)CCN(C(=O)c3ccc(Cl)s3)[C@H]2C1	-11	1.48
Cc1csc(CCNC(=O)c2ccc(-c3cc(C)c(C)[nH]c3=O)cc2)n1	6	-0.84
CC(C)c1ccc([C@@H](O)CN2CCCN(C3CC3)CC2)cc1	-4	0.77
COCC[C@]1(NC(=O)c2ncn(C(C)(C)C)n2)CCOC1	5	-0.46
O=C(NCc1ccc(F)c(Cl)c1)C1(N2CCCC2)CCCCC1	-13	1.37
CCS(=O)(=O)NCCCNc1ccc(C#N)nc1	-1	0.16
COC[C@](C)(CNC(=O)c1cccc(Br)c1)OC	-16	1.86
COC(=O)c1ncn(CC(=O)N(c2ccccc2)C2CCCCC2)n1	-12	1.54
CC(C)(C(=O)N1CCC[C@@H]2CCCC[C@@H]21)n1cccn1	-3	0.33

Structure (SMILES)	% Inhibition [%]	Z score
CCc1nn(C[C@H]2COc3ccccc3O2)c(=O)c(C#N)c1CC	6	-0.88
CO[C@@](F)(C(=O)Nc1ccc(OC(F)(F)F)cc1)C(F)(F)F	-1	0.16
Cc1ccc(-c2nc(C(=O)N3C[C@H](O)[C@@H](N(C)C)C3)cs2)n1C	0	-0.01
Cc1cnccc1NC(=O)N(Cc1ccco1)C[C@H]1CCCO1	-18	1.86
CCc1cnc(Cn2nnc3c(cnn3C)c2=O)o1	-8	1.3
CC(C)c1cc(NC(=O)NCCN(C)C)n(C(C)C)n1	-11	1.97
CC(C)(O)CN(C(=O)c1cc2n(n1)CCCC2)C1CC1	-1	0.1
CN(Cc1ccccc1)c1nc2c(c(Oc3ccccc3F)n1)CN(C(=O)c1cccc(C(F)(F)F)c1)CC2	4	-0.62
C#CC[C@@H](CO)NC(=O)Nc1c(C)cccc1C	15	-1.74
Cn1c(N)c(C(=O)Nc2ccc3ccccc3c2)sc1=S	-3	0.44
COc1cccc(C(=O)N2CCN(C3=Nc4ccc(C(F)(F)F)cc4Oc4ccccc43)C[C@@H]2C)c1	10	-1.01
CN1CCN([C@H]2CCN(c3ncc(Cl)cc3F)C[C@H]2CCCO)CC1	-19	2.04
CN(C)c1cccc(C(=O)c2cccc(N(C)C)c2)c1	-33	3.85
Cc1cc(C)nc(Cn2ccnc2-c2cccc([C@H](C)N(C)C)c2)n1	0	-0.07
O=C(NCCc1cccs1)c1cc(-c2ccc(F)cc2)ns1	5	-0.63
CC(C)c1ocnc1C(=O)Nc1ccc(OCC2CCOCC2)cc1	4	-0.75
COc1cc(NS(=O)(=O)c2ccccc2-c2nc(-c3ccc(C)cc3)no2)cc(OC)c1OC	1	-0.09
COc1nsc(CNCc2cnn(C)c2)c1Br	-12	1.36
COc1ccccc1C1CNCCN1C(=O)CC(N)c1ccccc1 (stereo not given)	-9	1.79
Cc1cccc(OC[C@H](C)NC(=O)NCC(=O)NC(C)C)c1	-3	0.3
CC1(C)CCN(C(=O)Cn2cnc(C(N)=O)n2)C[C@@H]1c1ccccc1	5	-0.54
CC1(C)C[C@@H](O)CCN(c2nnc(-c3ccc(O)cc3)s2)C1	-6	1.24

Structure (SMILES)	% Inhibition [%]	Z score
O=C(NCC(F)F)c1ccc(S(=O)(=O)NCc2ccncn2)cc1	-5	0.97
CCCCN(CCc1nc(-c2ccccc2)no1)C(=O)c1ccco1	6	-0.87
O=C(Nc1cccs1)N1CCN(c2nccs2)C(=O)C1	7	-0.94
COc1ccccc1C(=O)N1CCN(c2ncccc2NC(=O)c2ccc3c(c2)OCO3)CC1	-4	0.61
CC(C)(C)Cc1cc(NC(=O)C2(C#N)CCCC2)[nH]n1	-14	1.92
C#CCCC1(CCC(=O)N2CCCN(c3ccncc3)CC2)N=N1	0	0
Cc1csc([C@H](C)NC(=O)c2cc(COc3ccc(F)c(F)c3)on2)n1	8	-1.02
COc1cccc(NC(=O)c2c(C)oc3ncn(Cc4ccccc4)c(=O)c23)c1	-13	1.7
CC(C)N(CCc1nccs1)C(=O)CC(F)(F)F	-6	1.01
O=C(O)c1cnc(N2CCC[C@H](CN3CCCC3)C2)c(NS(=O)(=O)c2ccc(F)c(F)c2)c1	0	0.04
Cc1c(Br)c(C#N)c(C)n1C	1	-0.17
COc1ccc(C2(c3nnc(-c4cccc(S(=O)(=O)N(C)C)c4)o3)CCOCC2)cc1	-3	0.59
CC1(C)CC2(CC(C)(c3csc(N)n3)OC2=O)C(=O)O1 (stereo not given)	13	-1.5
CC1CCCc2ccccc2C1NC(=O)N1C[C@@H](O)C[C@H]1CO (stereo not given in full)	-3	0.33
O=C(NCCc1ccc(C2CCCCC2)cc1)N1CCOC2(CCOCC2)C1	-6	0.69
COc1ccccc1CNc1cccc(CCN2CCCC2)c1	27	-3.92
CC(C)COc1ccc(-c2nc(=O)c(CCC(=O)N3CCC(C)CC3)n[nH]2)cc1	-12	1.21
CC(C)c1ccc(-c2noc(CN3CCN(c4nccs4)CC3)n2)cc1	-2	0.2
O=S(=O)(C1CCCCC1)N1CC2(CCCC2)C1	-3	0.55
Cc1nccn1-c1cc(CNC(=O)[C@H]2CCCN(S(=O)(=O)c3cccs3)C2)ccn1	37	-4.16
CCn1c(N2CCOCC2)nc2c1c(=O)n(Cc1ccc(Cl)cc1)c(=O)n2C	-5	0.61
CCCC1(C2CCN(C(=O)CCC(C)C)CC2)NC(=O)N(CCC2CCCN2C)C1=O (stereo not given)	-8	1.1

Structure (SMILES)	% Inhibition [%]	Z score
COCCCC(=O)N1C2CCC1CC(=O)NC2 (stereo not given)	-10	1.96
COCCc1nc(C2(Nc3ccc(Cl)cc3)CCC2)no1	33	-4.5
CC(=O)Nc1cccnc1NC(=O)C1CC1c1ccc(F)c(F)c1 (stereo not given)	-11	1.19
CCCN1CCn2cc(S(=O)(=O)Nc3cccc(OC)c3)cc2C1=O	1	-0.17
CC(NC(=O)C(C)N1CCCC1c1ccc2c(c1)OCCO2)c1ccc(F)cc1 (stereo not given)	-9	1.66
Cc1cccc(NCc2nc(C)cs2)c1	-1	0.07
CCn1ccc2cc(C(=O)N3CCC[C@@H]3COC)ccc21	3	-0.46
CCC(N)(CC)CNS(=O)(=O)c1cc2c(cc1C)OCO2	-6	1.05
CCCNC(=O)N1CCCC[C@H]1c1nncn1-c1ccccc1	0	0.01
FC1(F)CCN(Cc2ccc3cc(Cl)ccc3n2)CC1	-8	1.57
COc1cc(C)n(CCNC(=O)c2ccoc2)c(=O)c1	-2	0.4
O=S(=O)(c1cccs1)N1CC(Cc2nc(-c3cccnc3)no2)C1	-13	1.73
CC(C)C(NC1CCCN(C(C)C)C1=O)c1nc(-c2nnc[nH]2)no1 (stereo not given)	-15	1.92
Cc1c(NC(=O)c2snc(O)c2Cl)c(=O)n(C2CCCCC2)n1C	12	-1.94
O=C(CCC(=O)c1ccccc1)NCc1nccnc1-c1ccncc1	-4	0.79
CCc1cc(N2CCOC[C@@H](O)C2)ncn1	-13	2.62
Cc1cc(F)cc(S(=O)(=O)N2CCC[C@H](n3cc(C)cn3)C2)c1	-3	0.53
Cc1ccc(C)n1-c1cccc(C(=O)OCC(=O)Nc2ccccc2C(F)(F)F)c1	14	-2.18
CCN(CC)CCCNC(=O)CCn1c(=O)c(C)nc2cc(C)c(C)cc21	1	-0.16
